# Data published in the supplement of paper PMC11417369.
# The other results are listed elsewhere or left out.
# System: PfHDP1 homeodomain (GST-tagged)
# Assay: gcPBM binding intensity (ln(normalized median fluorescence intensity)); higher = stronger DNA binding
# How it was run: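 DNA-binding domains from P. falciparum, fused to GST and produced in E. coli, were put on an Agilent 4 × 180k double-stranded probe array for 1 h in 1× PBS holding 1% milk, 0.2 mg/ml BSA, 0.5% salmon testes DNA and 0.03% Triton X-100. Probes were primer-extended, 36 bp long and drawn from intergenic genomic regions, with negative controls included. After Alexa488 anti-GST antibody detection and a 488 nm scan, binding intensity was set as the highest Masliner-normalised natural-log median intensity across replicate spots of either probe orientation.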
row,Sequence,gcPBM binding intensity (ln)
1,ATATGGCATAAAACATGTACATGTTCATAAATATAT [XGTACX_site1924],6.8
2,AATTGTTAATGGTACGAACACACATATAAAGATGCA [CACACA_site2043],6.76
3,ATTATATCTATAATATGTACATATTATAATATATAT [XGTACX_site3211],6.64
4,AGAATTAAAATAATACGTACACACATGTATAATACA [XGTACX_site1878],6.7
5,GTGTGATGGTCCAATATACACACTTAAAAAAAAAAA [CACACA_site2426],6.26
6,TACTGTTATAAATGTGGTACTAATATTATACATATA [XGTACX_site5116],6.45
7,TTAAATTATTAGAGAGTGCATTATATATATTATACA [GTGCAC_site9711],8.84
8,ATTTTTTTACAAAAATGTACACATGAAATATGTAAT [XGTACX_site1372],6.46
9,TGACAACATAGAGGGGCACACACATATATACATAAA [CACACA_site8550],6.64
10,TAAAAGTATATATATACACACATAAATATATCTGTA [CACACA_site4537],6.38
11,TATTATTTTAGAATGCGTACTTATAAAATATTTTAT [XGTACX_site867],6.42
12,AATGGTCTTTTCAACACACGTACATAAAAATATTAT [CACACA_site2571],6.74
13,GTGGAATAATATATATGTACATATTTAAAATATTTA [XGTACX_site3499],6.4
14,ATATATATATATATATGTACATATGTTAGGATCAAA [XGTACX_site8626],9.41
15,ATGACATATAAATATACACACATACGTAAGTATATT [CACACA_site5058],6.31
16,TTATATTAATAATAAAGTACAAAAAATCATATATAA [XGTACX_site799],6.67
17,TTATTGAACTTTTATAAAACCTGTATTATTATCTCT [CACACA_negctrl_site767],6.62
18,TATTTCTTATTACATACACACATATACATATATGAC [CACACA_site3201],6.97
19,TCCAGGCTACACTCTAGTACTCGTAGGGTTATGAGA [XGTACX_site4945],6.16

row,Sequence,gcPBM binding intensity (ln)
1,TCTTTAATGATGTGTACACAAGAAAACATTGTTAAG [CACACA_site5299],7.69
2,AAAAATAAGAGCGTAGCACACACGCATTTTATAAAT [CACACA_site8147],6.24
3,TAGAAGCATCATTTTACACACATGCAAATGTAAAAT [CACACA_site1893],6.82
4,ACATAAGAATTTTTATGTACTCATAATATTTTATAT [XGTACX_site2398],6.13
5,TACATACTAAAAAAATGTACTTGTATTGTTTTTTTA [XGTACX_site8357],6.06
6,GAAATATTTGTAAAAACATGCATGGTACTTTTAAAA [TGCATGCA_site6],6.77
7,TTTCTATATGGATTTGCACACATAAAAATGCTTATA [CACACA_site8751],10.2
8,TATATATATATATACACATGCAAAAATTTTTAATTT [TGCATGCA_site82],9.21
9,TTATTTAACGTATTCTCACACATATATATATATAAT [CACACA_site5226],6.75
10,TTTTTATTTTCATATGTGCACTTATATATATATATA,10.2
11,TTTTTATATAAGAAAAAATTATAACAATTTGTTAAT [XGTACX_negctrl_site422],5.91
12,TTCGCTGTTTTAATTAGTACTTATATATAATATTAT [XGTACX_site1149],7.22
13,TATTGATATATATATATATATATATGTATATACTTA [GTGCAC_negctrl_site111],6.84
14,CTAAACCTTTTGAGCACACATATATATATATATATA [CACACA_site1782],9.43
15,AATAAAACATCATCATGTACAAAATTCGTCTTTGTA [XGTACX_site4821],5.78
16,AATTATATATAAAGAAGTACTATTTCAAGGAGTTTT [XGTACX_site3837],6.34
17,TCAAATTTTCAACATTGTACATAAATGTATAAATAT [XGTACX_site6042],6.43
18,CAAAATATATATGACACACACAAAAAAAGTATATTA [CACACA_site1589],6.61
19,TATTATTATATATATAGTACATAAAATATAAAAAAA [XGTACX_site2060],6.35

row,Sequence,gcPBM binding intensity (ln)
1,ATGTCACAATTTTTCACACACAAAATTTAAATACAT [CACACA_site5168],6.73
2,GCATTATTATATATTTGTACATATTTTTTTTTAAAA [XGTACX_site5436],7.07
3,TAATTATGCGGACACACACACACACCCAACTAAAAA [CACACA_site5427],6.81
4,TTTTTTTTTTAAATGTGTCCTCATTATAATATATGT [XGTACX_site5331],6.24
5,TTTTTTAAATTATATTATAGCAAATAAATATTAAAA [CACACA_negctrl_site1655],6.06
6,GGCTAAAAGTTGCACACACACAAAAAAAAAAAAAAA [CACACA_site7531],9.9
7,TATTTGTTCTGATCCTTTTATTCAACTTTTTTTTTT [CACACA_negctrl_site978],6.5
8,ACCTTAATTATAATAACACACGAAAAGTGGACACAT [CACACA_site1750],7.4
9,AAATTTTAATTAGACTGTACACATTTTAGAATAATT [XGTACX_site4819],6.17
10,TTTTATGTTTTAAAATGTACGTGTCAATGAATAAGT [XGTACX_site6239],6.97
11,TATTATAGTCCGACTTTTTAATTTCTTTATTGTTTT [CACACA_negctrl_site1381],6.18
12,TGAATATTCATATGCACACAAATTAATATACATAAT [CACACA_site442],10.3
13,TTTTATTTTTAAAATTGTACATTATTATTGTTATTT [XGTACX_site1439],6.3
14,TTTAGATAATTCATTACACACATGTATATATATATA [CACACA_site3483],9.02
15,TAAGGAAGAAGAAAAAGTACTAAAGGTATAAATGCG [XGTACX_site2628],6.61
16,AAAAAAAAGTTGTAAGTGCATGTATATAATAATATT,7.47
17,TGATCACATAATAAATGTACAAAAAAAAATTAATAA [XGTACX_site5867],6.43
18,AACTTGTATATATACACACACACACTGTCTTTTTTT [CACACA_site1963],7.26
19,AGAACTTAATGCTGCACACAAAAAAAAGGAAAAATA [CACACA_site1353],7.56
